Source: the supplement of paper PMC8728848
The list shows a part of the results.

Tests used:
Experiment in all cases: glycan array binding signal (z-score within array); higher = stronger binding
Conditions in all cases: glycan notation: IUPAC condensed, linker removed
[1] = target: Gal(b1-3)Gal
Summary of the method: (§1)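 Glycan array data came from 3228 arrays in the Consortium for Functional Glycomics database, and only arrays with an available protein sequence were kept. Glycan names were put into IUPAC-condensed notation, and columns mapping to the same glycan were averaged. The binding signal is a within-array Z-score, averaged across arrays of one protein sequence run at different concentrations or buffers and across linkers. A negative Z-score can be read as non-binding.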

[2] = target: Gal(b1-3)Gal(b1-4)GlcNAc
Summary of the method: as §1

[3] = target: Gal(b1-3)Gal(b1-4)GlcNAc(b1-2)Man(a1-3)[Gal(b1-3)Gal(b1-4)GlcNAc(b1-2)Man(a1-6)]Man(b1-4)GlcNAc(b1-4)GlcNAc
Summary of the method: as §1

[4] = target: Gal(b1-3)GalNAc
Summary of the method: as §1

[5] = target: Gal(b1-3)GalNAc(a1-3)[Fuc(a1-2)]Gal(b1-4)Glc
Summary of the method: as §1

[6] = target: Gal(b1-3)GalNAc(a1-3)[Fuc(a1-2)]Gal(b1-4)GlcNAc
Summary of the method: as §1

[7] = target: Gal(b1-3)GalNAc(b1-3)Gal(a1-4)Gal(b1-4)Glc
Summary of the method: as §1

[8] = target: Gal(b1-3)GalNAc(b1-4)Gal(b1-4)Glc
Summary of the method: as §1

[9] = target: Gal(b1-3)GalNAc(b1-4)[Neu5Ac(a2-3)]Gal(b1-4)Glc
Summary of the method: as §1

[10] = target: Gal(b1-3)GlcNAc
Summary of the method: as §1

[11] = target: Gal(b1-3)GlcNAc(b1-2)Man(a1-3)[Gal(b1-3)GlcNAc(b1-2)Man(a1-6)]Man(b1-4)GlcNAc(b1-4)GlcNAc
Summary of the method: as §1

[12] = target: Gal(b1-3)GlcNAc(b1-2)Man(a1-3)[Gal(b1-3)GlcNAc(b1-2)Man(a1-6)]Man(b1-4)GlcNAc(b1-4)[Fuc(a1-6)]GlcNAc
Summary of the method: as §1

[13] = target: Gal(b1-3)GlcNAc(b1-3)Gal(b1-3)GlcNAc
Summary of the method: as §1

[14] = target: Gal(b1-3)GlcNAc(b1-3)Gal(b1-4)Glc
Summary of the method: as §1

[15] = target: Gal(b1-3)GlcNAc(b1-3)Gal(b1-4)GlcNAc
Summary of the method: as §1

[16] = target: Gal(b1-3)[Fuc(a1-4)]GlcNAc
Summary of the method: as §1

[17] = target: Gal(b1-3)[Fuc(a1-4)]GlcNAc(b1-2)Man(a1-3)[Gal(b1-3)[Fuc(a1-4)]GlcNAc(b1-2)Man(a1-6)]Man(b1-4)GlcNAc(b1-4)GlcNAc
Summary of the method: as §1

[18] = target: Gal(b1-3)[Fuc(a1-4)]GlcNAc(b1-2)Man(a1-3)[Gal(b1-3)[Fuc(a1-4)]GlcNAc(b1-2)Man(a1-6)]Man(b1-4)GlcNAc(b1-4)[Fuc(a1-6)]GlcNAc
Summary of the method: as §1

[19] = target: Gal(b1-3)[Fuc(a1-4)]GlcNAc(b1-3)Gal(b1-3)[Fuc(a1-4)]GlcNAc
Summary of the method: as §1

[20] = target: Gal(b1-3)[Fuc(a1-4)]GlcNAc(b1-3)Gal(b1-4)GlcNAc
Summary of the method: as §1

[21] = target: Gal(b1-3)[Fuc(a1-4)]GlcNAc(b1-3)Gal(b1-4)[Fuc(a1-3)]GlcNAc
Summary of the method: as §1

[22] = target: Gal(b1-3)[GlcNAc(b1-6)]GalNAc
Summary of the method: as §1

[23] = target: Gal(b1-3)[Neu5Ac(a2-6)]GalNAc
Summary of the method: as §1

[24] = target: Gal(b1-3)[Neu5Ac(a2-6)]GlcNAc(b1-6)Gal(b1-4)Glc
Summary of the method: as §1

[25] = target: Gal(b1-3)[Neu5Ac(b2-6)]GalNAc
Summary of the method: as §1

[26] = target: Gal(b1-4)GalNAc(a1-3)[Fuc(a1-2)]Gal(b1-4)GlcNAc
Summary of the method: as §1

[27] = target: Gal(b1-4)GalNAc(b1-3)[Fuc(a1-2)]Gal(b1-4)GlcNAc
Summary of the method: as §1

[28] = target: Gal(b1-4)Glc
Summary of the method: as §1

[29] = target: Gal(b1-4)Glc6S
Summary of the method: as §1

[30] = target: Gal(b1-4)GlcNAc
Summary of the method: as §1

[31] = target: Gal(b1-4)GlcNAc(a1-6)Gal(b1-4)GlcNAc
Summary of the method: as §1

[32] = target: Gal(b1-4)GlcNAc(b1-2)Man(a1-3)Man(b1-4)GlcNAc(b1-4)GlcNAc
Summary of the method: as §1

[33] = target: Gal(b1-4)GlcNAc(b1-2)Man(a1-3)[Gal(b1-4)GlcNAc(b1-2)Man(a1-6)]Man(b1-4)GlcNAc(b1-4)GlcNAc
Summary of the method: as §1

[34] = target: Gal(b1-4)GlcNAc(b1-2)Man(a1-3)[Gal(b1-4)GlcNAc(b1-2)Man(a1-6)]Man(b1-4)GlcNAc(b1-4)[Fuc(a1-6)]GlcNAc
Summary of the method: as §1

[35] = target: Gal(b1-4)GlcNAc(b1-2)Man(a1-3)[Man(a1-6)]Man(b1-4)GlcNAc(b1-4)GlcNAc
Summary of the method: as §1

[36] = target: Gal(b1-4)GlcNAc(b1-2)Man(a1-6)Man(b1-4)GlcNAc(b1-4)GlcNAc
Summary of the method: as §1

[37] = target: Gal(b1-4)GlcNAc(b1-2)Man(a1-6)[Man(a1-3)]Man(b1-4)GlcNAc(b1-4)GlcNAc
Summary of the method: as §1

B1: Flo11 (Saccharomyces cerevisiae), Q1H8S8 (protein)
chain: MGSSHHHHHHSSGLVPRGSHMFPTALVPRGSSEGTSCNSIVNGCPNLDFNWHMDQQNIMQYTLDVTSVSWVQDNTYQITIHVKGKENIDLKYLWSLKIIGVTGPKGTVQLYGYNENTYLIDNPTDFTATFEVYATQDVNSCQVWMPNFQIQFEYLQGSAAQYASSWQWGTTSFDLSTGCNNYDNQGHSQTDFPGFYWNIDCDNNCGGTKSS
- glycan array binding signal (z-score) [1]: -0.483
- glycan array binding signal (z-score) [2]: -0.46
- glycan array binding signal (z-score) [3]: -0.509
- glycan array binding signal (z-score) [4]: 1.73
- glycan array binding signal (z-score) [5]: -0.028
- glycan array binding signal (z-score) [6]: 1.2
- glycan array binding signal (z-score) [7]: 2.47
- glycan array binding signal (z-score) [8]: 2.27
- glycan array binding signal (z-score) [9]: 2.88
- glycan array binding signal (z-score) [10]: -0.506
- glycan array binding signal (z-score) [11]: -0.505
- glycan array binding signal (z-score) [12]: -0.494
- glycan array binding signal (z-score) [13]: 1.86
- glycan array binding signal (z-score) [14]: 1.71
- glycan array binding signal (z-score) [15]: 1.97
- glycan array binding signal (z-score) [16]: -0.505
- glycan array binding signal (z-score) [17]: -0.405
- glycan array binding signal (z-score) [18]: -0.424
- glycan array binding signal (z-score) [19]: -0.505
- glycan array binding signal (z-score) [20]: -0.501
- glycan array binding signal (z-score) [21]: -0.502
- glycan array binding signal (z-score) [22]: -0.464
- glycan array binding signal (z-score) [23]: -0.473
- glycan array binding signal (z-score) [24]: -0.496
- glycan array binding signal (z-score) [25]: -0.494
- glycan array binding signal (z-score) [26]: -0.456
- glycan array binding signal (z-score) [27]: -0.449
- glycan array binding signal (z-score) [28]: -0.503
- glycan array binding signal (z-score) [29]: -0.505
- glycan array binding signal (z-score) [30]: -0.502
- glycan array binding signal (z-score) [31]: -0.498
- glycan array binding signal (z-score) [32]: -0.501
- glycan array binding signal (z-score) [33]: -0.498
- glycan array binding signal (z-score) [34]: -0.495
- glycan array binding signal (z-score) [35]: -0.496
- glycan array binding signal (z-score) [36]: -0.507
- glycan array binding signal (z-score) [37]: -0.506
